Test results published in PubChem BioAssay AID485367 (National Center for Advancing Translational Sciences (NCATS), 2010).
The campaign covered roughly 330,000 compounds. About 560 (0.17%) were called active. This list was built around the results that the source calls inconclusive (neither active nor inactive); the mix of calls is not that of the screen. Calls come from the whole dose curve; as a rule, active = well fitted inhibition curve with a large enough effect; inconclusive = small, poorly fitted or top-dose-only effect, or effect the other way; inactive = flat fitted curve, though single readings scatter. No potency is given beside an inconclusive call; the fits are too rough.

biological target: ATP-dependent 6-phosphofructokinase (Trypanosoma brucei brucei) (UniProt O15648); assay: qHTS Assay to Find Inhibitors of T. brucei phosphofructokinase; note: nearly all actives have a fitted effect of over 60% in size; settings: T. brucei PFK, ADP-Glo luminescence; activity, negative = inhibition: at 57.5 µM (top of the series)
Excerpt: NIH Molecular Libraries Probe Production Network [MLPCN] NIH Chemical Genomics Center [NCGC] Grant: 1 R03 MH092153-01 PI Name: Malcolm Walkinshaw, University of Edinburgh NCGC Assay Overview: Various species of the protozoan family Trypanosomatidae are responsible for a range of serious human diseases in tropical and subtropical areas of the world. […] Many of the disorders caused by trypanosomatids are fatal if left untreated, but most currently used drugs are inefficient and toxic. […] Oxidative metabolism involving the mitochondrial tricarboxylic acid cycle and oxidative phosphorylation are repressed in these parasites, and recent RNA interference (RNAi) experiments have shown that even partial depletion of certain individual glycolytic enzymes can lead to the death of cultured parasites. One such glycolytic enzyme, phosphofructokinase (PFK), catalyzes the formation of fructose-1,6-bisphosphate (F1,6BP) and ADP from fructose-6-phosphate (F6P) and ATP, and in many metabolic circumstances makes an important contribution to the control of flux through the glycolytic pathway. As a specific glycolytic target, PFK is particularly attractive as it catalyzes the first irreversible step in glycolysis, and structural and kinetic studies have shown very substantial and essential differences from corresponding host enzymes, allowing for the discovery of parasite-selective inhibitors. The goal of this screen is to find small-molecule inhibitors of T. brucei PFK using a biochemical assay that measures PFK activity as a function of ADP production. A luminescence-based assay for T. brucei PFK activity has been developed which uses luciferase to detect production of ADP. Traditional luciferase-based nucleotide detection reagents rely on ATP production as a direct substrate for the luciferase reaction; however, PFK catalyzes the transfer of a phosphate from ATP to F6P, resulting in the net depletion of ATP. To directly measure the ADP product of the PFK reaction, we used the ADP-Glo detection kit (Promega), which utilizes two separate reactions to 1) deplete all remaining uncatalyzed ATP and 2) convert all remaining ADP to ATP, which is then detected through a traditional luciferase-coupled reaction. Compounds were screened as a concentration-titration series that ranged from 57 uM to 0.7 nM.
NCGC Assay Protocol Summary: NCGC Assay Protocol Summary: Substrate buffer was dispensed into white, solid 1536-well plates at 3uL/well in 0.1M triethanolamine (TEA) buffer, pH 8.0, containing final concentrations of 5 mM MgCl2, 0.01% Tween20, 0.5 mM fructose-6-phosphate (F6P) and 0.1mM ATP. Then, 23 nL of compounds or DMSO were delivered to each well using a pin tool. One uL T. brucei PFK (0.1M TEA, 0.01% Tween20, 0.1% bovine serum albumin (BSA) and 1.25nM PFK, final concentrations) was then dispensed, and plates were incubated at room temperature for 45 min. The luminescent detection reagent, ADP-Glo (Promega), was then added in two steps: the first reagent, ADP-Glo (which converts remaining uncatalyzed ATP), was added at 2.5uL/well and incubated for ten minutes at room temperature, and the second component, Kinase Detection reagent (which converts ADP to ATP as a substrate for luciferase-based luminescence), was added immediately after at 5uL/well, followed by one final ten minute room temperature incubation. The plates were measured on a ViewLux plate reader for luminescent signal using a clear filter with a one second exposure. The %Activity was determined from the corrected luminescence values. As no specific T. brucei PFK inhibitors have been identified in the literature, 1x (1.25nM) and 0x PFK enzyme controls (untreated) were included to normalize %Activity of identified inhibitors; 0x enzyme values corresponded to 100%Activity (full inhibition), while 1x PFK enzyme values were used to normalize 0%Activity (no inhibition). Concentration-response curves were fitted to the signals arising from the resulting luminescence. […]
Potency is the fitted concentration of half-maximal effect; tags give direction and shape of the fitted curve.

Chain of UniProt O15648 (O15648 whole entry, looked up): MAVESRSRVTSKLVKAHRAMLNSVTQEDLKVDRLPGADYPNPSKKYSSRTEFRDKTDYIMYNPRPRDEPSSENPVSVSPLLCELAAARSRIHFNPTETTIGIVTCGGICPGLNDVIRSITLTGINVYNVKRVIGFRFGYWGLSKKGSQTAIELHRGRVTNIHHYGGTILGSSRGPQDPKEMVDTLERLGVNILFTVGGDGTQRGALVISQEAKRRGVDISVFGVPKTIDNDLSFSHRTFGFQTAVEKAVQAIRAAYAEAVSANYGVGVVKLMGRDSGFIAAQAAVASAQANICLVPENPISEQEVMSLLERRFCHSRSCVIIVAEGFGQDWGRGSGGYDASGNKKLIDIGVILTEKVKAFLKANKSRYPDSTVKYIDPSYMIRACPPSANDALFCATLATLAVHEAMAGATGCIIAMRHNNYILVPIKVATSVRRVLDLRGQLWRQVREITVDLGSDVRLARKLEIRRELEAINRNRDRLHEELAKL

Compound | activity, negative = inhibition | Potency
CCCC(=O)NNc1c2ccccc2nc2ccccc12 | inactive: -0.0498% | 
CO/N=C(/CS(=O)c1ccc(Br)cc1)c1ccc(OC)cc1 (centres undefined) |  | inconclusive [falling, single point]
CC1(C)O[C@@H]2[C@H](O1)[C@@H](COS(=O)(=O)O)O[C@H]2n1c(=S)[nH]c2c(=O)[nH]c(N)nc21 |  | inconclusive [falling, single point]
CCCn1nc(C(=O)Nc2cc(S(=O)(=O)Nc3ccc(OC)cc3)ccc2O)c2ccccc2c1=O | inactive: -0.295% | 
COC(=O)CCC(=O)NC(=S)Nc1sc(C)c(C)c1C(N)=O | inactive: -3.25% | 
O=C(COC(=O)c1cncc(Br)c1)NCc1ccco1 |  | inconclusive [falling, full curve]
CCOC(=O)c1c(-c2ccc(C)o2)csc1NC(=O)CN1CCCCC1 |  | inconclusive [falling, partial curve]
CC(C)(C)OC(=O)[C@H](Cc1ccccc1)NC(=O)c1nc[nH]c1C(=O)NCCCCCN |  | inconclusive [activator, full curve]
Cc1nnc(SCC(=O)NC(=O)NCc2ccco2)n1Cc1ccccc1 |  | inconclusive [falling, full curve]
Cc1oc2cc3oc(=O)c(CC(=O)N[C@H](C(=O)N[C@@H](C(=O)O)c4ccccc4)C(C)C)c(C)c3cc2c1C |  | inconclusive [falling, single point]
C=CCn1cccc(/C=C/C(=O)c2ccc(C(C)(C)C)cc2)c1=S | inactive: -0.426% | 
O=C1C(C2=NC(C(=O)O)C3C(=O)N(c4ccccc4)C(=O)C23)=C(O)c2ccccc21 (centres undefined) |  | inconclusive [activator, single point]
Cc1ccc(NC(=S)Nc2ccc(Cl)c(Cl)c2)c(OC(F)F)c1 |  | active: 5.36 µM
CC(C)NC(=O)c1ccc(Sc2ccccc2)c([N+](=O)[O-])c1 |  | inconclusive [falling, single point]
Cc1nn(-c2ccccc2)c2c1C(c1ccc(Br)s1)C(C#N)=C(N)O2 (centres undefined) |  | inconclusive [falling, single point]
COc1cccc(NC(=O)CSc2nnc(-c3ccco3)c(-c3ccco3)n2)c1 |  | inconclusive [falling, single point]
O=CNc1ccccc1Oc1ccccc1 |  | inconclusive [activator, single point]
O=C(O)CC(CCc1ccccc1)OC1OC(CO)C(O)C(O)C1O (centres undefined) |  | inconclusive [falling, single point]
Cc1ccc(C(C(=O)NC2CCCCC2)N(Cc2ccco2)C(=O)C2COc3ccccc3O2)o1 (centres undefined) | inactive: -7.78% | 
